# From the supplement of paper PMC8285479
# Several values for one entry are separate records, joined by “and”; a condition that tells them apart may be missing. Equal values may be shown once. Where a name gives a salt, the structure may show the parent alone. ± gives the standard deviation of the averaged measurements. The full ranking holds about 1,900 compounds; the median of “normalised cell viability (NPI; 0 = phenylarsine oxide control, 1 = DMSO control)” is about 1, and the lowest 2% start at about 0.039. The list shows a part of the results.
# Tested on: NCI-H1944
# Test: normalised cell viability (NPI; 0 = phenylarsine oxide control, 1 = DMSO control) (fraction of DMSO control); NCI-H1944 is a non-small cell lung cancer line; higher = more viable cells (less compound toxicity)
# Conditions: 6 days
# [1] = glucocorticoid arm: hydrocortisone 2.75 uM co-treatment, compound 1 µM
# [2] = glucocorticoid arm: vehicle, compound 1 µM
# [3] = glucocorticoid arm: hydrocortisone 2.75 uM co-treatment, compound 5 µM
# [4] = glucocorticoid arm: hydrocortisone 2.75 uM pre-treated 2 days and continued, compound 1 µM
# [5] = glucocorticoid arm: hydrocortisone 2.75 uM pre-treated 2 days and continued, compound 5 µM
# [6] = glucocorticoid arm: vehicle, compound 5 µM
# 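Further: CTB read-out in 384-well plates, mean of triplicate wells, normalised per plate against 1 µM phenylarsine oxide and 0.1% DMSO, compounds added 24 h after seeding.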
SMILES,normalised cell viability [1],normalised cell viability [2],normalised cell viability [3],normalised cell viability [4],normalised cell viability [5],normalised cell viability [6]
COc1ccc(Cl)cc1NC(=O)Nc1cc(C)nc2ccccc12,1.01 and 1.02,1 and 1.01,–,–,–,–
"COc1ccccc1N1CCN(CCCNc2c(C)c(=O)n(C)c(=O)n2C)CC1 [Urapidil, 5-Methyl-]",1.01 ± 0.012,1.01,1.01 ± 0.01,1.01 ± 0.026,1 ± 0.028,1.01
O=C(O)/C=C/C(O)c1ccc(Cl)cc1 (stereo not given) [NCS-356 sodium salt hydrate],1.007 ± 0.0058,1.003 ± 0.0058,1.02 ± 0.01,1.01 ± 0.01,1.04 ± 0.083,1.01 ± 0.018
C[C@]12CCC(=O)C=C1CC[C@@H]1[C@@H]2CC[C@@]2(C)[C@H]1CC[C@]2(O)C(=O)CO [Cortexolone],1.01 ± 0.015,1.002 ± 0.0068,1 ± 0.022,1.01 ± 0.025,0.99 ± 0.018,0.985 ± 0.013
CCC1(c2ccccc2)C(=O)NCNC1=O [Primidone],1.002 ± 0.0068,1.002 ± 0.0076,1.013 ± 0.0058,1.01 ± 0.033,0.999 ± 0.019,0.989 ± 0.013
COc1cc(Nc2c(C#N)cnc3cc(OCCCN4CCN(C)CC4)c(OC)cc23)c(Cl)cc1Cl [Bosutinib],0.9847 ± 0.0085,0.897 ± 0.03,0.8487 ± 0.0055,1.007 ± 0.0058,0.958 ± 0.019,0.644 ± 0.039
COc1cc(Nc2c(C#N)cnc3cc(OCCCN4CCN(C)CC4)c(OC)cc23)c(Cl)cc1Cl [Bosutinib (SKI-606)],0.898 ± 0.046,0.86 ± 0.016,0.848 ± 0.015,0.969 ± 0.015,0.942 ± 0.072,0.336 ± 0.027
C1CCC(N=C(NC23CC4CC(CC(C4)C2)C3)N2CCOCC2)CC1,0.983 ± 0.012,0.986 ± 0.013,0.926 ± 0.018,0.997 ± 0.012,0.9845 ± 0.0064,0.984 ± 0.001
NC(=O)C1CCCc2c1[nH]c1ccc(Cl)cc21 (stereo not given) [EX 527 (Selisistat)],0.973 ± 0.0079,0.9907 ± 0.0086,0.996 ± 0.0027,0.967 ± 0.016,0.992 ± 0.032,0.9903 ± 0.0055
NC(=O)C1CCCc2c1[nH]c1ccc(Cl)cc21 (stereo not given),0.999 ± 0.019,1.01 ± 0.01,1.01 ± 0.026,1.006 ± 0.0075,0.988 ± 0.013,1.02 ± 0.011
CO/N=C(\C(=O)N[C@@H]1C(=O)N2C(C(=O)O)=C(COC(C)=O)CS[C@H]12)c1csc(N)n1 [Cefotaxime sodium salt],0.999 ± 0.036,1.002 ± 0.0072,1.01 ± 0.02,0.989 ± 0.021,1 ± 0.025,1.007 ± 0.0058
Clc1ccc(C2(c3ccc(-c4cn[nH]c4)cc3)CCNCC2)cc1,0.968 ± 0.012,0.9947 ± 0.0051,0.9977 ± 0.0021,0.975 ± 0.011,1.006 ± 0.0075,0.939 ± 0.015
NC1(Cc2ccc(Cl)cc2)CCN(c2ncnc3[nH]ccc23)CC1,0.901 ± 0.034,0.9813 ± 0.0087,0.602 ± 0.08,0.934 ± 0.014,0.68 ± 0.045,0.827 ± 0.068
"O=C(O)CCC(C(=O)O)N1C(=O)c2ccccc2C1=O [L-Glutamic acid, N-phthaloyl-]",1.01 ± 0.01,1.003 ± 0.0058,1 ± 0.023,0.9973 ± 0.0025,1.03 ± 0.023,1.02 ± 0.017
